Assay results taken from the supplement of paper PMC4166925.
± gives the standard deviation of the averaged measurements. Over roughly 33,000 sequences, “E-score (dimensionless, -0.5 to 0.5)” has its median near -0.046; the highest 2% begin near 0.36. This is one part of the list.

System: T1, SpTbr T-box DNA-binding domain (GST fusion)
T1 sequence: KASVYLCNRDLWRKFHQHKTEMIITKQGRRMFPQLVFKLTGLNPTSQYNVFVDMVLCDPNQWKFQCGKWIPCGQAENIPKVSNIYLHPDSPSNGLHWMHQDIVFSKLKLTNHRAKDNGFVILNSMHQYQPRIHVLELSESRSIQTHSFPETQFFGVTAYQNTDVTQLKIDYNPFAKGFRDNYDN
Test: PBM E-score of 8-mer (E-score (dimensionless, -0.5 to 0.5)); Tbr is Tbrain of the sea star Patiria miniata (Pm) or the sea urchin Strongylocentrotus purpuratus (Sp); higher = stronger binding preference; most listed sequences are background and not binding sites
Conditions: the construct has about 5 more residues each side
Summary of the method: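 Universal Agilent oligonucleotide arrays, made double-stranded by primer extension, were incubated with 200 nM GST-fused Tbr T-box DNA-binding domain in PBS (pH 7.5). The protein was expressed in BL21 E. coli at 20 °C and purified by glutathione affinity chromatography. After scanning and quantification, the Universal PBM Analysis Suite assigned an enrichment E-score to each ungapped 8-mer, averaged over duplicate arrays.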

Sequence | PBM E-score of 8-mer
AGACCCAA | -0.135 ± 0.051
CCAGCGTC | 0.0784 ± 0.048
CACTCATC | 0.139 ± 0.041
GTGGAAAA | 0.125 ± 0.036
GTGCGAAA | 0.4765 ± 0.0018
AGACCACG | -0.123 ± 0.023
AAACAAGA | -0.144 ± 0.088
AGGACTTC | -0.0985 ± 0.016
CATCTTCG | 0.0284 ± 0.034
GTCACTGA | 0.114 ± 0.05
ATTCTGAG | -0.206 ± 0.048
TATTGTCA | 0.259 ± 0.0048
ATTTCACA | 0.4303 ± 0.0022
ACATGCCT | -0.149 ± 0.028
ACCGCCGA | -0.0679 ± 0.082
CTTACAAA | -0.157 ± 0.036
GACAATGC | 0.1077 ± 0.00013
GAGATCCA | 0.00312 ± 0.022
CGCGATCC | 0.25 ± 0.058
ACACGAAA | -0.0562 ± 0.022
ACGGTGCG | 0.298 ± 0.024
GTCAATTA | 0.0683 ± 0.081

Sequence | PBM E-score of 8-mer
TAGTTATA | -0.132 ± 0.028
GGCAACAA | 0.13 ± 0.019
AGAGATTC | -0.0558 ± 0.025
AATTCCGA | -0.0591 ± 0.017
AGATCTGG | -0.115 ± 0.13
TACCGAAA | -0.282 ± 0.051
TACACAGA | -0.191 ± 0.08
CCTTACAC | 0.3668 ± 0.0022
AACAAGCG | 0.124 ± 0.022
ATGCTTAG | -0.0663 ± 0.052
AAGAAGCT | -0.135 ± 0.037
CTTAGCGA | 0.161 ± 0.014
GCGTTGCC | 0.224 ± 0.024
GACCATTA | -0.0128 ± 0.047
ACTTACAC | 0.251 ± 0.075
AGCGCCTG | 0.151 ± 0.0084
CAATGTCG | 0.143 ± 0.0028
AATGAGTC | -0.0246 ± 0.0053
GGACGCCA | 0.00509 ± 0.055
GCCGACCA | -0.0701 ± 0.06
CATAGGGG | -0.19 ± 0.021
CGAGCCGC | 0.131 ± 0.09

Sequence | PBM E-score of 8-mer
ATCCTAAC | 0.0464 ± 0.0035
AGGTAAGG | -0.0391 ± 0.017
AGACTACT | -0.196 ± 0.027
ACAAATGA | -0.115 ± 0.033
GATAGGCA | -0.0863 ± 0.091
CAAACTCC | -0.00739 ± 0.073
TGAGCTAA | -0.0118 ± 0.003
AGAGACAA | -0.0942 ± 0.008
AACATGGT | 0.0967 ± 0.028
GGAGCTAA | -0.165 ± 0.013
CGCGTGAA | 0.4208 ± 0.0018
ATGGTCAG | -0.188 ± 0.03
GAACTGGA | -0.101 ± 0.015
TATGAAAA | -0.14498 ± 0.00011
AGGATTAA | -0.0396 ± 0.046
AATGAAGC | -0.23 ± 0.11
CCCTGTCC | -0.0439 ± 0.043
GACTTGAC | 0.077 ± 0.081
CCGTCTTA | -0.123 ± 0.028
GCGGCAAA | 0.1484 ± 0.0012
AATCCCCC | -0.339 ± 0.097
ATGTAATC | -0.0831 ± 0.014

Sequence | PBM E-score of 8-mer
AATCGCTG | -0.0659 ± 0.031
CGAATGTA | -0.0892 ± 0.04
CAGCAAGA | -0.0629 ± 0.045
CGCCATTA | 0.0699 ± 0.017
CTGCAAAC | -0.0237 ± 0.035
CTCCTAAA | -0.231 ± 0.055
CAATATTA | -0.2 ± 0.027
TAGGAAAA | -0.211 ± 0.0062
ACCGCTTA | -0.151 ± 0.0038
AAGCTCGG | -0.0679 ± 0.069
AGAGATTG | 0.00583 ± 0.025
AGAGCTGA | -0.108 ± 0.023
ATTGTTCC | -0.076 ± 0.0045
AGGCGGAG | -0.199 ± 0.01
AGTCGGCA | 0.0408 ± 0.12
GCGCAGCC | -0.0173 ± 0.027
ATATAGAT | -0.11 ± 0.041
GTCGTGTA | -0.0754 ± 0.07
AACCCACG | -0.072 ± 0.023
AATCCACA | 0.169 ± 0.0031
CCGTCAAC | 0.24 ± 0.021
AGGTTGGG | -0.271 ± 0.012

Sequence | PBM E-score of 8-mer
CACCCCAG | 0.167 ± 0.02
TCACCCCA | 0.166 ± 0.0061
AATATCCA | -0.0696 ± 0.057
AGTATGAC | 0.0489 ± 0.035
AAAATGTG | 0.253 ± 0.041
CCGTGATA | 0.0742 ± 0.019
GAGTGGAC | -0.0772 ± 0.041
GCGATGAC | 0.172 ± 0.02
ATAGCTGA | -0.0564 ± 0.04
GATTTCCA | 0.146 ± 0.051
AAACCAGG | -0.0282 ± 0.041
ACCCTCAC | 0.155 ± 0.084
GGAAGATA | -0.267 ± 0.024
CGCACCTC | 0.453 ± 0.016
AAGCTAGA | -0.186 ± 0.021
CAGTTGCA | 0.112 ± 0.033
CATGTTAC | -0.141 ± 0.018
GTAGCAAA | 0.0279 ± 0.094
TAGCGTCA | 0.21 ± 0.013
CCATAGCC | -0.16 ± 0.028
CAGCCCCG | -0.281 ± 0.039
CCGGCCGA | -0.183 ± 0.014
